The values below come from PubChem BioAssay AID504374 (National Center for Advancing Translational Sciences (NCATS), 2011).

The campaign covered roughly 1,500 compounds. About 100 (6.7%) were called active. Roughly 7% stayed inconclusive and do not appear here. The call rests on the fitted dose curve; in most records, active means well fitted inhibition curve with a large enough effect; inconclusive means small, poorly fitted or top-dose-only effect, or effect the other way; inactive means flat fitted curve, though single readings scatter. The list shows a part of the results.
On the % scale 0 is the no-effect control and ±100 the full control effect; potency means the concentration at half of the fitted maximal effect.

UniProt Q01196, sequence (Q01196 whole entry, looked up): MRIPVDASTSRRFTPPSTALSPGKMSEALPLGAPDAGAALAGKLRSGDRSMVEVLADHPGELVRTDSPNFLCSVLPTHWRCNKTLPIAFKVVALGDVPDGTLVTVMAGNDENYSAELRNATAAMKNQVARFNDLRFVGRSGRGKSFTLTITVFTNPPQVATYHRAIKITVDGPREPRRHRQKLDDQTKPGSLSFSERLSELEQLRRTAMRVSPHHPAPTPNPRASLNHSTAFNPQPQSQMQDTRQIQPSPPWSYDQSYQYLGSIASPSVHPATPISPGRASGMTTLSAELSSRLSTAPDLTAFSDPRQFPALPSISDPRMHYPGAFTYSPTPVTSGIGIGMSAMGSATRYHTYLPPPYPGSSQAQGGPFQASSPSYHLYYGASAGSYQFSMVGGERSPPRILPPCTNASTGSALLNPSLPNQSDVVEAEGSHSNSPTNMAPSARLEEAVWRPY
UniProt Q01196, sequence (Q13951 whole entry, looked up): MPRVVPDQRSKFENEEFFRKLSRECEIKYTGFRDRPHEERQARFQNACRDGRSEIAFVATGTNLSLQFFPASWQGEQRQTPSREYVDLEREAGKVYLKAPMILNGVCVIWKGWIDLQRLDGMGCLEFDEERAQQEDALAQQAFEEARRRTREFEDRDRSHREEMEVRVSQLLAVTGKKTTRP

In the assay the target is Runt-related transcription factor 1 (Homo sapiens) + Core-binding factor subunit beta (Homo sapiens) (UniProt Q01196+Q13951). As to the kind of experiment: qHTS Assay for Compounds Blocking the Interaction Between CBF-beta and RUNX1 for the Treatment of Acute Myeloid Leukemia: Hit Validation. Further: nearly all actives have a fitted effect of over 60% in size. The settings on record: AlphaScreen CBFb-His/RUNX1-biotin binding; series mostly up to 59.8 µM; activity, negative = inhibition: at the top concentration. In a few lines:
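Compounds were added to a premixed CBF-beta-His/RUNX1-biotin complex (30 nM each, 20 min) for 15 min. Nickel and streptavidin AlphaScreen beads followed for 90 min at room temperature, with emission at 440 nm […].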
For orientation: In qHTS, concentration-response curves come from the screen itself.
On to `C/C(=N\Nc1ccc(Cl)c(C(=O)O)c1)c1ccccn1`, for which the “activity, negative = inhibition” value is inactive: -5.05%. `N#Cc1c(-c2ccccc2Cl)c2c([nH]c1=O)-c1ccccc1OC2`: the “activity, negative = inhibition” value was inactive: 4.48%. `Cn1ncc(Br)c1NC(=O)Nc1ccc(OC(F)(F)F)cc1`: the “activity, negative = inhibition” value is inactive: -0.719%.

With `Cc1ccc2[nH]cc(CCNC(=O)/C=C/c3ccco3)c2c1`, the “activity, negative = inhibition” value was inactive: -14.3%. Take `Cn1cnc2c(N/N=C/c3cccs3)ncnc21`: the “activity, negative = inhibition” value is inactive: -14.8%. `O=C(CSc1n[nH]c(=O)[nH]c1=O)N1CCCCCC1`: the “activity, negative = inhibition” value was inactive: -1.59%. `Nc1nccc(/C=C/c2ccc(Cl)cc2)n1`: the “activity, negative = inhibition” value was inactive: -10.8%. Same read-out and setting: with `O=C(CSc1nc(O)c(Cc2ccccc2)c(=O)[nH]1)c1ccccc1` the figure was inactive: -0.881%; with `CCN1CCN(c2nc3ccccn3c(=O)c2/C=C(\C#N)S(=O)(=O)c2ccccc2)CC1`, inactive: 3.17%; with `Cc1ccc(Sc2ncccc2NC(=O)c2ccccc2Cl)cc1`, inactive: -3.58%. Still for that read-out and setting: with `COc1ccccc1CC(=O)Nc1cccc(C(=O)Nc2nccs2)c1` the figure was inactive: -6.81%.

Regarding `Cc1cc(=O)cc2oc3cc(N)c(-c4c(C)cc(O)cc4O)c(C)c3nc1-2`, the Potency was active: 8.88 µM.

As to `COc1ccc2[nH]c(C(=O)N3CCCN(Cc4ccc(F)cc4)CC3)cc2c1`, the “activity, negative = inhibition” value was inactive: -10.3%. Take `CCCN(CCC)C(=O)CC(c1ccccc1)c1ccco1` (stereo not drawn): the “activity, negative = inhibition” value was inactive: 12.8%. On to `Cn1cnnc1SCc1ccccc1[N+](=O)[O-]`, for which the “activity, negative = inhibition” value is inactive: -6.48%. In the case of `CCOC(=O)c1cn[nH]c1C(F)(F)F`, the “activity, negative = inhibition” value is inactive: -1.59%. The same measure, in the same setting: with `Cc1cc(C)c(C#N)c(SCCN2CCOCC2)n1` the figure was inactive: 0.0944%; with `O=c1[nH]nc(N/N=C/c2ccc(Cl)cc2Cl)c(=O)[nH]1`, inactive: -5.54%. With `O=C(NNC(=S)Nc1ccccc1C(F)(F)F)C1CC1`, the “activity, negative = inhibition” value is inactive: 9.35%.

In the case of `CCOC(=O)c1cn[nH]c1NC(=S)Nc1ccc(Cl)cc1`, the “activity, negative = inhibition” value is inactive: -2.56%.

For the compound `C=CCn1c(SCc2ccc(F)cc2)nnc1-c1sc2nc(C)cc(C)c2c1N`, the “activity, negative = inhibition” value was inactive: 1.13%. On to `Cc1nn2c(N3CCN(CCO)CC3)c3c(nc2c1-c1ccccc1)CCCC3`, for which the “activity, negative = inhibition” value was inactive: 7.83%. As for `CC(C)(C)C(=O)Nc1ccc(NC(=O)C(C)(C)C)cc1`, the “activity, negative = inhibition” value is inactive: 10.3%. On the same count and under the same terms, with `COc1ccc2c(C)cc(C)nc2n1` the figure was inactive: 6.91%; with `Cc1cc(C)n2nc(N)c(N=Nc3ccccc3)c2n1`, inactive: -9.08%; with `CN(C)c1ccc(N2C(=O)CC(c3ccccc3)CC2=O)cc1`, inactive: -1.11%.

With `CCCc1c(C(=O)O)cnn1-c1ccc(Cl)cc1`, the “activity, negative = inhibition” value was inactive: 5.98%. With `CC(=O)Oc1cc2c3c(c1)/C(=C1/SC(=S)NC1=O)C(=O)N3C(C)(C)C=C2C`, the “activity, negative = inhibition” value is inactive: -17.8%. Regarding `Cc1nn(-c2ccccc2)c(NC(=O)c2cccs2)c(-c2ccccc2Cl)c1=O`, the “activity, negative = inhibition” value was inactive: -2.94%.

With `Cc1nc(Nc2ccc(F)cc2)nc(Nc2ccc(F)cc2)c1[N+](=O)[O-]`, the “activity, negative = inhibition” value is inactive: 18.1%. As to `CC(C)NNC(=O)c1ccncc1`, the “activity, negative = inhibition” value is inactive: -29.6%.

On to `Cc1ccc(-c2nn[nH]n2)cc1Cl`, for which the “activity, negative = inhibition” value is inactive: 0.848%. On the same count and under the same terms, to `CCO/C=C1\SC(=S)N(c2ccc(Cl)cc2)C1=O` belongs inactive: -14.9%; to `CCOC(=O)c1cnn(-c2ccc(NS(=O)(=O)c3ccc(Cl)cc3)cc2)c1C(F)(F)F`, inactive: -3.82%; to `Cc1nc(C)c(-c2ccnc(/N=C/NO)n2)s1`, inactive: -3.29%. Same read-out and setting: with `Cc1oc(S(=O)(=O)N2CCCC2)cc1C(=O)Nc1ccccc1` the figure was inactive: 3.56%; with `Cn1cnc(S(=O)(=O)Nc2ccc(OC(F)F)cc2)c1`, inactive: 1.32%. As to `N[C@H](Cc1ccc(O)c(O)c1)C(=O)O`, the Potency was active: 8.91 µM. Regarding `Cc1onc(-c2c(F)cccc2Cl)c1C(=O)c1ccc(F)cc1`, the “activity, negative = inhibition” value is inactive: 5.2%.

Consider `S=c1[nH]nc([C@@H]2C[C@H]2c2ccccc2)n1-c1ccccc1Cl`, for which the “activity, negative = inhibition” value was inactive: -3.48%. Same read-out and setting: with `CCOC(=O)c1cn2nc(Oc3ccc(NC(C)=O)cc3)ccc2n1` the figure was inactive: 0.0937%; with `CC(C)(C)OC(=O)NCCCCCC(=O)N/N=C/c1coc2ccccc2c1=O`, inactive: 0.254%.

`CC(=O)Nc1ccc(CC#N)cc1`: the “activity, negative = inhibition” value was inactive: -5.15%. In the case of `CC1=C(C)Cc2c(OC(=O)c3ccccc3)ccc(OC(=O)c3ccccc3)c2C1`, the “activity, negative = inhibition” value is inactive: -0.853%.

As for `Cc1cc(-n2cnc(-c3cn[nH]c3C)n2)no1`, the “activity, negative = inhibition” value was inactive: 0.0385%. Take `Cn1nc(-c2ccccc2)cc1NC(=O)CCCC(=O)O`: the “activity, negative = inhibition” value was inactive: -2.32%. With `Cc1ccc(-n2c(-c3ccc(Cl)cc3)c[n+]3c2CCC3)cc1`, the “activity, negative = inhibition” value was inactive: -3.48%. Still for that read-out and setting: to `CC1(C)CC(=O)c2cnc(N3CCc4ccccc43)nc2C1` belongs inactive: -13.5%. For the compound `COc1ccc(NC(=O)Oc2cc(C)ccc2C(C)C)cc1`, the “activity, negative = inhibition” value is inactive: -6.96%. The same measure, in the same setting: to `O=C(O)/C=C/C(=O)Nc1ccc(Cl)cc1C(=O)c1ccccc1` belongs inactive: -3.57%; to `O=C(c1ccc(Cl)cc1Cl)N1CCSCC1`, inactive: -0.685%; to `Cc1cc(C)nc(S/C=C/C(=O)c2ccccc2)n1`, inactive: -29%.

With `O=C(c1ccccc1)c1ccc(Sc2ccc([N+](=O)[O-])cc2)cc1`, the “activity, negative = inhibition” value is inactive: 13.4%. Take `CCCCNC(=O)Nc1nnc(C(C)(C)C)s1`: the “activity, negative = inhibition” value is inactive: -19.8%.

`C[C@H](N)C(=O)OCc1ccc([N+](=O)[O-])cc1`: the “activity, negative = inhibition” value is inactive: -0.667%. Regarding `Cn1nc2sc3ccccc3n2c(=O)c1=O`, the “activity, negative = inhibition” value was inactive: 17.9%. Same read-out and setting: with `CC(C)(C)c1cc(C(=O)NN)n(Cc2ccc(Cl)cc2Cl)n1` the figure was inactive: -0.295%; with `COc1ccc2[nH]c(=O)c(CN(C(=O)c3cccnc3)c3ccc(C)cc3C)cc2c1`, inactive: -3.33%.
